Whole data set: some 110,000 compounds, median “z-score” near -0.1, cut for the highest 2% near 2. The list shows a part of the results.
These molecules were tested against Metabotropic glutamate receptor 8 (Rattus norvegicus) (UniProt P70579) (assay: rat mGluR8 modulators via GIRK flux, primary screen, cell-based, thallium flux, HTS (AID 488969)). Conditions: HEK293 rat mGluR8, GIRK (G protein-gated inwardly rectifying potassium channel) thallium flux, FluoZin2; at 10 µM; stronger effect = higher value; submaximal glutamate (EC20) added with thallium.
Chain of UniProt P70579 (P70579 whole entry, looked up): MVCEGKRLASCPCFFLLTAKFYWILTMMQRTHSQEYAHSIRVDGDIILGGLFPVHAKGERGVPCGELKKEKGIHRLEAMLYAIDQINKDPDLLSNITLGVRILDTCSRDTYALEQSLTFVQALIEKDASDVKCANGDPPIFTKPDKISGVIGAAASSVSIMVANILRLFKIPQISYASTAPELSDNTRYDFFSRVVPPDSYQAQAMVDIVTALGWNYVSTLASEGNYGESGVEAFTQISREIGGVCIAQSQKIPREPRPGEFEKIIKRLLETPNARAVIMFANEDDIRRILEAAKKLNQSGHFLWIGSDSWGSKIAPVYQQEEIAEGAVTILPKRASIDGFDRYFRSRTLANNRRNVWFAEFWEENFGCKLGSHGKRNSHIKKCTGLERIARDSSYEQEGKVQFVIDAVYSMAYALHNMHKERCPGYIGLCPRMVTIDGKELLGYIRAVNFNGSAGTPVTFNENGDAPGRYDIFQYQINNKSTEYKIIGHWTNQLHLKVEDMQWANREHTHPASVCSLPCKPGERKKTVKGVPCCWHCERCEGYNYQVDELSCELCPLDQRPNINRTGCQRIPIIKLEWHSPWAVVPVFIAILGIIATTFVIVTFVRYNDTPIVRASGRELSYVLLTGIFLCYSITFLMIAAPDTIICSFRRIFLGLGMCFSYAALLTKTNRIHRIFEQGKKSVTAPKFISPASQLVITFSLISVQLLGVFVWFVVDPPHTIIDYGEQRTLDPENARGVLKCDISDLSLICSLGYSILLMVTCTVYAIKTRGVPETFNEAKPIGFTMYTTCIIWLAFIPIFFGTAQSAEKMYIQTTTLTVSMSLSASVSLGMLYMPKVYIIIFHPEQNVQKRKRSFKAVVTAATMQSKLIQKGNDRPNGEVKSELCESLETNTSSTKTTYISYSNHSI

SMILES | z-score
C=CCn1c(COc2ccccc2)nnc1SC(C)C(=O)N/N=C/c1cc(Cl)ccc1O (stereo not given) | -0.297
N/C(COc1ccc(Cl)cc1)=N\NS(=O)(=O)c1ccccc1 | -0.154
Cc1c(C#N)c2ccccc2n1CC(=O)NC(C)c1ccccc1 (stereo not given) | -0.0353
Cc1c(-c2ccc(F)cc2)nc(N)c(C#N)c1-c1cccs1 | -0.00884
Cc1ccc(Oc2ccccc2/C=C/C(=O)O)cc1 | 0.23
O=C(COc1ccc(=O)n(-c2ccccc2)n1)Nc1ccccc1 | -0.349
Cn1ncc([N+](=O)[O-])c1C(=O)Nc1ccc2c(c1)OCCO2 | -0.139
COC(=O)c1sc(NC(=O)C(C)c2ccccc2)nc1C (stereo not given) | -0.32
CCOc1ccccc1C1CC(c2ccccc2)Nc2nc(N)nn21 (stereo not given) | 0.236
CN1CCN(NC(=O)CN2C(=O)/C(=C/c3ccccc3Cl)SC2=S)CC1 | -0.672
CCCc1nn2c(=O)c(C(c3cccc(Cl)c3)c3c(O)nc4sc(CCC)nn4c3=O)c(O)nc2s1 | -0.214
CCOc1ccc(S(=O)(=O)Oc2ccc3ccccc3c2)cc1 | -0.0642
O=C(NCC(=O)N(CC1CCCO1)C1(C(=O)NC2CCCC2)CCCCC1)c1ccccc1 (stereo not given) | -0.361
O=C(O)CCCC(=O)NCCc1ccncc1 | 0.0989
N=c1nc(N)nc2n1NC(c1ccc(F)cc1)=CS2 | -0.504
COCCCN1C(=O)c2ccc(C(=O)Nc3ccc(OC)cc3)cc2C1=O | 0.0601
CN(Cc1cccs1)S(=O)(=O)c1cccs1 | -0.191
O=C(/C=C/c1ccc(Br)cc1)NC1CCCCCC1 | 0.112
Cc1cc(C)c2nc(N3CCN(C)CC3)c(C#N)cc2c1 | -0.416
Cc1cc(NC(=O)c2cnn3c(C(F)(F)F)cc(-c4ccccc4)nc23)no1 | -0.46
Cn1c(Cc2ccccc2)nnc1SCC(=O)c1cccs1 | 0.0263
O=c1[nH]c(CN2CCc3ccccc3C2)nc2ccccc12 | 0.446
Cc1cc(N(C)NC(=S)Nc2ccccc2)nc(C)n1 | 0.069
CC1(C)CC(NC(=O)c2cccc3ccccc23)CC(C)(C)N1 | -0.109

SMILES | z-score
CCOC(=O)CCCCC(=O)c1[nH]c(=O)[nH]c1CSc1nc(C)cc(C)n1 | -0.307
CCC(c1n[nH]c(=S)n1-c1ccccc1)N(C)C (stereo not given) | -0.992
COc1ccc(OCC#CCNC(C)(C)C)cc1 | 0.0183
Cc1cc(=O)[nH]c(SCc2csc(-c3ccccc3)n2)n1 | -0.553
C=CCNC(=O)c1ccc(Cl)cc1Cl | 0.206
O=C1CSC2(C(=O)N3CCCc4cccc2c43)N1c1cccc(C(F)(F)F)c1 (stereo not given) | -0.28
O=C(CS(=O)(=O)Cc1ccccc1)Nc1ccc(S(=O)(=O)N2CCOCC2)cc1 | -0.109
NNC(=O)CNC(=O)c1ccc(F)cc1 | -0.271
COc1cccc(C(=O)NC(=S)Nc2ccc(Cl)c(C(=O)O)c2)c1 | 0.493
CCN(C(=O)COC(=O)c1cc2ccccc2cc1O)C1CCS(=O)(=O)C1 (stereo not given) | -0.0757
CNC(=O)N1CCN(C(=O)NC)CC1 | -0.168
Cc1ccc2cc(CN(C)C(=O)C3CCCO3)c(=O)[nH]c2c1 (stereo not given) | 0.14
O=C(Cc1ccccc1)N1CCCC(c2nc(-c3ccc(S(=O)(=O)N4CCCC4)cc3)no2)C1 (stereo not given) | -0.104
COc1ccc(C(=O)COC(=O)c2ccc(NC(=O)c3ccccc3)cc2)cc1 | 0.00806
O=[N+]([O-])c1cccc(-c2nnn(C34CC5CC(CC(C5)C3)C4)n2)c1 | -0.00482
CCc1cccc2cc3c(N)c(C(=O)Nc4ccc(S(=O)(=O)N5CCCC5)cc4)sc3nc12 | -0.235
C=C(Cl)COc1cc(C)cc2oc(=O)cc(CC)c12 | -0.344
Cc1ccsc1C(=O)OCC(=O)NCCC1=CCCCC1 | -0.248
CCOc1cc(CNn2cnnc2)cc(Br)c1OCC(=O)NC1CCCCC1 | -0.179
Cc1ccc(S(=O)(=O)N2CCOCC2)c(C)c1-n1cnnn1 | 0.0967
CCN(CC)S(=O)(=O)c1ccc(F)c(C(=O)NCCC(C)C)c1 | 0.869
CCn1c(C(C)NC(=O)c2cccc(C)c2)nc2ccccc21 (stereo not given) | -0.392
COc1ccc(C(=O)Nc2cccc(/C(C)=N/NC(=O)c3ccc([N+](=O)[O-])c(C)c3)c2)cc1OC | -0.168
COC(=O)C1=C(C)NC(=O)CC1c1ccc(C(=O)OC)cc1 (stereo not given) | 0.0197

SMILES | z-score
COc1ccc(/C=N/OCc2nc3c4c(ncn3n2)Oc2ccc3ccccc3c2C4c2ccccc2)cc1 (stereo not given) | 0.386
CCn1c(SCC(=O)N/N=C/C=C\c2ccccc2[N+](=O)[O-])nc2ccccc21 | 0.631
CCN(CC)CCCNC(=O)c1cc2c(=O)n(C)c3ccccc3c2n1C | 1.21
Cc1nn(-c2ccccc2)c(Cl)c1/C=C1/C(=N)N2N=C(C(C)C)SC2=NC1=O | 0.217
CCOC(=O)Cc1cc(=O)c2c(=O)n(-c3ccccc3)[nH]c2[nH]1 | -0.0705
Cc1ccc(S(=O)(=O)N(CC(=O)N2CCC(C(N)=O)CC2)c2cccc(C(F)(F)F)c2)cc1 | -0.345
CCOc1c2ccc(C(=O)NCc3ccc(C)cc3)cc2nn1CCOC | -0.256
COc1cccc(/C=N/NC(=O)c2ccccc2N(Cc2ccccc2)S(=O)(=O)c2ccccc2)c1OC | -0.653
CCOc1ccc(N(CC(=O)Nc2ccccc2C)S(=O)(=O)c2c(C)noc2C)cc1 | -0.0568
O=C(O)c1ccc(-n2nnnc2Oc2cccc3cccnc23)cc1 | -0.137
O=C(COC(=O)Cc1ccsc1)NCC12CC3CC(CC(C3)C1)C2 | -0.197
Cc1ccc(S(=O)(=O)c2nc(NCCCn3ccnc3)sc2Cl)cc1 | 0.374
CCCNC(=O)C(Cc1ccccc1)NS(=O)(=O)c1cccc2nsnc12 (stereo not given) | 0.198
C=CCN(CC=C)C(=S)NCCc1ccc(OC)c(OC)c1 | -0.0119
CCCC(=O)Nc1ccc(C#Cc2ccccc2)cc1 | 0.26
CC1CC(C)CN(c2oc(-c3ccccc3Cl)nc2C#N)C1 (stereo not given) | -0.32
CC(C)c1ccccc1NC(=O)COC(=O)c1ccc(Cl)c(S(=O)(=O)N2CCCCCC2)c1 | -0.177
CN(C1CCCCC1)S(=O)(=O)c1ccc(S(=O)(=O)N2CCN(C(=O)c3ccccc3F)CC2)cc1 | 0.0966
CCCC(=O)Nc1nc2ccc(OCC)cc2s1 | 0.426
COc1ccc(Cl)cc1Nc1nc(-c2sc(NC(=O)c3ccccc3)nc2C)cs1 | 0.23
COc1ccc(CCNC(=O)C2(C)CCC(=O)N2CCC(C)C)cc1OC (stereo not given) | 0.67
CCc1c(C)nc2ncnn2c1Nc1ccc(C)c(C)c1 | 0.364

— PubChem BioAssay AID488969 (Vanderbilt High Throughput Screening Facility, 2010)
